In one test the test system is HSkMC. The experiment in a line: cytotoxicity call (relative viability < 0.9). The conditions noted are these: 10 µM.
In the next test the test system is HepG2. The experiment in a line: cytotoxicity call (relative viability < 0.9). The conditions noted are these: 10 µM.
The test system of a further test is S. aureus RN4220. The experiment in a line: growth inhibition call (relative growth <= 0.2). Conditions: 50 µM.

Each structure is given as a SMILES string. The list shows a part of the results.

As to `C[C@@H]1CN([C@H](C)CO)C(=O)CCCn2nncc2CO[C@H]1CN(C)Cc1cccc2c1OCCCO2`, the cytotoxicity call with HSkMC and with HepG2 was “inactive” throughout. The growth inhibition call in the test with S. aureus RN4220 was “inactive”.

Consider `C[C@H]1CCCCO[C@@H](CN(C)Cc2ccc(C(=O)O)cc2)[C@@H](C)CN([C@@H](C)CO)C(=O)c2cc(NS(=O)(=O)c3ccccc3)ccc2O1`, for which the cytotoxicity call in the test on HSkMC and in the test on HepG2 was “inactive” throughout. Further, the growth inhibition call with S. aureus RN4220 is “inactive”.

On to `Cc1cc(CO)c(O)c(CO)c1`, for which the cytotoxicity call in the test with HSkMC and in the test on HepG2 was “inactive” in each case. The growth inhibition call in the test on S. aureus RN4220 is “inactive”.

Turning to `NCC1CCC(N)C(OC2C(N)CC(N)C(OC3OC(CO)C(O)C(N)C3O)C2O)O1` (stereo not drawn), the cytotoxicity call with HSkMC and with HepG2 was “inactive” throughout. For the same compound, the growth inhibition call in the test with S. aureus RN4220 is “inactive”.

For `COc1ccc(CN(C)C[C@@H]2Oc3ccc(NS(=O)(=O)c4cn(C)cn4)cc3CC(=O)N([C@@H](C)CO)C[C@H]2C)cc1`, the cytotoxicity call in the test on HSkMC and in the test with HepG2 was “inactive” in each case. Besides, the growth inhibition call with S. aureus RN4220 was “inactive”.

Regarding `C=CCC[C@@H](Cc1ccc(F)cc1)C(=O)OC[C@@H](NC(=O)[C@H](CC=C)CC(=O)N(CCO)Cc1ccccc1)c1ccccc1`, the cytotoxicity call in the test with HSkMC and in the test with HepG2 was “inactive” in each case. In the test on S. aureus RN4220, the growth inhibition call was “inactive”.

In the case of `CC(=O)NCCCC[C@@H]1NC(=O)[C@H]2C[C@@H](C(=O)NCCCCCNC(=O)CS)[C@@H](c3ccc(O)cc3)N2C1=O`, the cytotoxicity call in the test on HSkMC and in the test on HepG2 was “inactive” each time. For the same compound, the growth inhibition call with S. aureus RN4220 was “inactive”.

Turning to `Cc1noc(C)c1NC(=O)Nc1ccc2c(c1)C(=O)N([C@@H](C)CO)C[C@@H](C)[C@H](CN(C)S(=O)(=O)c1ccccc1)OCCCC[C@H](C)O2`, the cytotoxicity call with HSkMC and in the test on HepG2 was “inactive” each time. For the same compound, the growth inhibition call in the test on S. aureus RN4220 is “inactive”.

In the case of `CCCCC/C=C\C=C\CCCCCCCCC(=O)O`, the cytotoxicity call with HSkMC and in the test on HepG2 was “inactive” throughout. Also, the growth inhibition call with S. aureus RN4220 was “inactive”.

Consider `C[C@@H]1CN([C@@H](C)CO)C(=O)c2cc(NC(=O)C3CCCCC3)ccc2O[C@@H](C)CCCCO[C@@H]1CN(C)C(=O)Nc1ccccc1`, for which the cytotoxicity call in the test on HSkMC and in the test on HepG2 was “inactive” throughout. Further, the growth inhibition call in the test on S. aureus RN4220 is “inactive”.

Turning to `O=C(Oc1ccc(C2CCCCC2)cc1)c1cccs1`, the cytotoxicity call in the test with HSkMC and in the test on HepG2 was “inactive” each time. The growth inhibition call in the test on S. aureus RN4220 was “inactive”.

Consider `CCCNC(=O)[C@@]1(Sc2ccc(C)cc2)CC(=O)N(C2CCCCC2)[C@@H]1c1ccc(CO)cc1I`, for which the cytotoxicity call in the test on HSkMC and in the test on HepG2 was “inactive” in each case. Also, the growth inhibition call in the test with S. aureus RN4220 is “inactive”.

`C[C@@H]1CN([C@@H](C)CO)C(=O)Cc2cc(NC(=O)Cc3ccccc3)ccc2O[C@H]1CN(C)S(C)(=O)=O`: the cytotoxicity call in the test on HSkMC and with HepG2 was “inactive” throughout. Also, the growth inhibition call with S. aureus RN4220 is “inactive”.

`C[C@@H]1CCCCO[C@@H](CN(C)S(=O)(=O)c2cn(C)cn2)[C@H](C)CN([C@@H](C)CO)C(=O)c2cc(NS(=O)(=O)c3ccccc3)ccc2O1`: the cytotoxicity call in the test on HSkMC and in the test on HepG2 was “inactive” throughout. Also, in the test on S. aureus RN4220, the growth inhibition call is “inactive”.

For the compound `CCCN(C)C[C@@H]1OCCCC[C@H](C)Oc2ccc(NS(C)(=O)=O)cc2C(=O)N([C@@H](C)CO)C[C@H]1C`, the cytotoxicity call in the test on HSkMC and in the test with HepG2 was “inactive” throughout. Also, the growth inhibition call with S. aureus RN4220 was “inactive”.

As for `C[C@H](CO)N1C[C@H](C)[C@H](CN(C)Cc2ccc(C(F)(F)F)cc2)Oc2ccc(NC(=O)C3CCCCC3)cc2C1=O`, the cytotoxicity call in the test on HSkMC and with HepG2 was “inactive” in each case. In the test on S. aureus RN4220, the growth inhibition call is “inactive”.

`C[C@@H]1CN([C@H](C)CO)C(=O)c2cc(C3=CCCCC3)cnc2O[C@H]1CN(C)C(=O)CN1CCOCC1`: in the test on HSkMC, the cytotoxicity call is “inactive”. Further, in the test on HepG2, the cytotoxicity call is “active”. Further, in the test with S. aureus RN4220, the growth inhibition call is “inactive”.

For the compound `NCc1cccc(N2CCCC2)c1`, the cytotoxicity call in the test on HSkMC and in the test with HepG2 was “inactive” throughout. In the test with S. aureus RN4220, the growth inhibition call was “inactive”.

On to `COc1ccc(S(=O)(=O)Nc2cccc3c2O[C@H](CN(C)C(=O)Nc2c(C)noc2C)[C@H](C)CN([C@@H](C)CO)C3=O)cc1`, for which the cytotoxicity call in the test on HSkMC and with HepG2 was “inactive” each time. Also, the growth inhibition call in the test with S. aureus RN4220 was “inactive”.

As for `Cc1noc(C)c1S(=O)(=O)Nc1ccc2c(c1)C(=O)N([C@@H](C)CO)C[C@@H](C)[C@H](CN(C)Cc1ccccc1)OCCCC[C@@H](C)O2`, the cytotoxicity call in the test on HSkMC (human skeletal muscle cells) and with HepG2 was “inactive” each time. Further, the growth inhibition call in the test on S. aureus RN4220 is “inactive”.

Take `C[C@@H]1CCCCO[C@@H](CN(C)Cc2ccncc2)[C@@H](C)CN([C@H](C)CO)C(=O)c2cc(NS(C)(=O)=O)ccc2O1`: the cytotoxicity call in the test with HSkMC and in the test on HepG2 was “inactive” in each case. In addition, the growth inhibition call in the test on S. aureus RN4220 was “inactive”.

In the case of `C[C@H](CO)N1C[C@H](C)[C@@H](CN(C)Cc2ccc(-c3ccccc3)cc2)Oc2ccc(NC(=O)c3ccncc3)cc2C1=O`, the cytotoxicity call with HSkMC and with HepG2 was “inactive” in each case. Also, the growth inhibition call with S. aureus RN4220 is “inactive”.

Regarding `O=C1OCCN1N=Cc1ccc([N+](=O)[O-])o1`, the cytotoxicity call with HSkMC is “inactive”. The cytotoxicity call with HepG2 was “active”. Besides, the growth inhibition call in the test on S. aureus RN4220 was “active”.

For `Cc1ccc(S(=O)(=O)Nc2ccc3c(c2)C(=O)N([C@@H](C)CO)C[C@H](C)[C@H](CN(C)C(=O)Nc2c(C)noc2C)OCCCC[C@H](C)O3)cc1`, the cytotoxicity call in the test with HSkMC and with HepG2 was “inactive” throughout. Moreover, in the test with S. aureus RN4220, the growth inhibition call was “inactive”.

Take `C[C@@H]1CCCCO[C@@H](CN(C)Cc2ccncc2)[C@@H](C)CN([C@@H](C)CO)C(=O)c2cc(NC(=O)Nc3ccc4c(c3)OCO4)ccc2O1`: the cytotoxicity call in the test with HSkMC and with HepG2 was “inactive” in each case. In the test with S. aureus RN4220, the growth inhibition call is “inactive”.

Turning to `O=C(NCCN1CCCC1)[C@H]1[C@H](CO)[C@H]2Cn3c(cccc3=O)[C@@H]1N2C(=O)NC1CCCC1`, the cytotoxicity call with HSkMC and with HepG2 was “inactive” each time. Besides, in the test with S. aureus RN4220, the growth inhibition call is “inactive”.

Values taken from the antibiotic and cytotoxicity screens of Wong et al. (2023).
